The source of these data is the supplement of paper PMC10126150.

Sequences with one replicate were seen in a single cluster, so their values are uncertain.
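Also: ATP exposure 15 min at 22 °C before imaging.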

This data set has as its system ATP. The data set can be described thus: switch fluorescence ratio, 500 uM ATP over buffer (Cy3 cluster intensity, sum of 5 cycles each) (fold (ratio)); higher = stronger signal-on switching upon ATP binding; sequences stand for … in TCGTCGGCAGCGTCAGATGTGTATAAGAGACAGTTTTTTTTTTTTTTTTTTTTTTTTT…TC. The note with it: aptamer strand: ATP DNA aptamer (quencher-CACCTGGGGGAGTATTGCGGAGGAAGG + anchor), 100 nM annealed; ATP concentration: 500 uM; one replicate. In short, it runs like this: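 Cy3-labelled switching-strand clusters on a modified Illumina MiSeq flow-cell were annealed to 100 nM quencher-labelled ATP aptamer, imaged in selection buffer, then imaged after 15 min with 500 uM ATP at 22 °C. Five buffer/ATP cycles ran, with NaOH stripping and re-annealing between them. The fluorescence ratio is summed target-cycle over summed buffer-cycle Cy3 intensity per cluster, averaged per switch-domain sequence. Clusters outside 100-1000 RFU were excluded.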
Turning to ATGAAGGGCG, the switch fluorescence ratio came out at 1.06. As to CAGGAAAGCC, the switch fluorescence ratio worked out at 0.987. For TAGGAAGTGT, the switch fluorescence ratio was found to be 1.08. With TCATGAATTG, the switch fluorescence ratio came out at 1.03. For the sequence GATTTTGCC, the switch fluorescence ratio turned out to be 1.05. To ATAATTGCAG belongs 1.01. To ACCATAGGCC belongs 1.05; to CGCTGCAGCC, 1.03; to TTTCACTCG, 1.04.

For the sequence TGATTCGTGT, the switch fluorescence ratio was found to be 0.992. The same measure for CGACATCAGT: 0.966. Turning to GTTGATTCGT, the switch fluorescence ratio was determined as 0.969. For GAGAGATGAT, the switch fluorescence ratio was 1.28.

With ATGAGTAAGA, the switch fluorescence ratio was determined as 1. As to GCGCGGCA, the switch fluorescence ratio is 0.965. For GTATTTCAGC, the switch fluorescence ratio worked out at 0.986. Regarding ACTATTAAAT, the switch fluorescence ratio stood at 1.01. For the sequence CGCGCGAAAT, the switch fluorescence ratio came out at 1.07. CAGAACGTGA: the switch fluorescence ratio came out at 1.14. Turning to CTTGCTGAGC, the switch fluorescence ratio turned out to be 1.01.

As to GGGGGAACGA, the switch fluorescence ratio was 1.03. To AGAGGTTATA belongs 0.995; to AAGCCCGGTG, 2; to TGCAATTCTG, 1.17.

Regarding CTTCTAAGAT, the switch fluorescence ratio is 0.992.

AGGAGAGCAG: the switch fluorescence ratio worked out at 1.16.

Regarding ACTAAGAGCA, the switch fluorescence ratio was 1.04. To TAAGTCTCGA belongs 0.987; to TTCGATGGG, 0.996. As for TATGTACGCC, the switch fluorescence ratio amounted to 1.15. With AACTGCGGCA, the switch fluorescence ratio is 1. The same measure for AAACCTCTAA: 1.08; for GTACCTGGT: 1.01.

AATATTATG: the switch fluorescence ratio stood at 0.965. Take GGGTTTAAC: the switch fluorescence ratio came to 1.01.

As to TTATATAATT, the switch fluorescence ratio came to 1.01. As to CAGCTGCA, the switch fluorescence ratio worked out at 1.05.

In the case of GTGGTTTGCG, the switch fluorescence ratio was 0.904. For the sequence AGGTATAGGG, the switch fluorescence ratio was determined as 0.976. As for TCATTGAAGC, the switch fluorescence ratio was 1.07. TACATGATAA: the switch fluorescence ratio was 1.05. For TGCGACTCCA, the switch fluorescence ratio came out at 1.22.

As to AAGGAACTAA, the switch fluorescence ratio came to 1.01. To AAGTGATGT belongs 0.979; to AGGTTGTCTC, 1.02.

For GTTCCATTTG, the switch fluorescence ratio came out at 0.975. The same measure for GCGTGGCTGC: 1.01; for TGACGGTTAT: 1.03. With AACTTCGATC, the switch fluorescence ratio was determined as 1.03.

For CGTGGCCAT, the switch fluorescence ratio is 1.

As for TTGGACTTGT, the switch fluorescence ratio came to 0.985. As to ACGCTATTTA, the switch fluorescence ratio is 1.12. Regarding GGACTGGGTT, the switch fluorescence ratio worked out at 0.99. The same measure for GCCCTCACCC: 1.07; for GTGGGACTGG: 1.03; for AAACTTATGT: 0.951. For the sequence ATTCGACGCC, the switch fluorescence ratio is 2.16. Turning to TGGCTTTGTC, the switch fluorescence ratio was determined as 0.944. As to TAATCCGGAA, the switch fluorescence ratio came out at 2.23. The same measure for TCCATTAAAG: 1. To TGGTAAAAGC belongs 1.01; to GATTCTGG, 0.964. Take GCATGTAGCT: the switch fluorescence ratio is 1.03.

CGCAGTCCAG: the switch fluorescence ratio stood at 1.22. For TTTAAAGTCA, the switch fluorescence ratio was determined as 1.

Take CCGAGGCCTA: the switch fluorescence ratio was 3.51.

Take TTAATGGTGT: the switch fluorescence ratio turned out to be 1.05. With CAGGCTCCG, the switch fluorescence ratio is 1.03.

For the sequence CCCGTCATCC, the switch fluorescence ratio is 1.45. With TGTCCACAGC, the switch fluorescence ratio was 1.06. GTAATCTGAG: the switch fluorescence ratio turned out to be 1.04. The same measure for CCAATACCTT: 1.29; for TCGTCGGAAA: 1.05. For TGACGCGGGA, the switch fluorescence ratio worked out at 1.07. Consider CAGTATGTTG, for which the switch fluorescence ratio stood at 0.951. As for CAAGTTATGG, the switch fluorescence ratio came out at 0.952. Turning to GCTTATAGTA, the switch fluorescence ratio was 0.985.

Turning to GGGGAGTTGC, the switch fluorescence ratio worked out at 1.03. On to TAAGCACGGC, for which the switch fluorescence ratio is 1.04.
